According to the supplement of paper PMC3334620:
Over roughly 33,000 sequences, “E-score (-0.5 to 0.5)” has its median near -0.041; the highest 2% begin near 0.37. Some of the results follow.

What follows are sequences tested against T1, Ecm22 (UniProt Q05958) (assay: PBM E-score (8-mer binding enrichment) (E-score (-0.5 to 0.5)); higher = stronger / more preferred TF binding; most listed sequences are background and not binding sites). Details: protein concentration: 200 nM; construct: GST-full length.
T1 sequence: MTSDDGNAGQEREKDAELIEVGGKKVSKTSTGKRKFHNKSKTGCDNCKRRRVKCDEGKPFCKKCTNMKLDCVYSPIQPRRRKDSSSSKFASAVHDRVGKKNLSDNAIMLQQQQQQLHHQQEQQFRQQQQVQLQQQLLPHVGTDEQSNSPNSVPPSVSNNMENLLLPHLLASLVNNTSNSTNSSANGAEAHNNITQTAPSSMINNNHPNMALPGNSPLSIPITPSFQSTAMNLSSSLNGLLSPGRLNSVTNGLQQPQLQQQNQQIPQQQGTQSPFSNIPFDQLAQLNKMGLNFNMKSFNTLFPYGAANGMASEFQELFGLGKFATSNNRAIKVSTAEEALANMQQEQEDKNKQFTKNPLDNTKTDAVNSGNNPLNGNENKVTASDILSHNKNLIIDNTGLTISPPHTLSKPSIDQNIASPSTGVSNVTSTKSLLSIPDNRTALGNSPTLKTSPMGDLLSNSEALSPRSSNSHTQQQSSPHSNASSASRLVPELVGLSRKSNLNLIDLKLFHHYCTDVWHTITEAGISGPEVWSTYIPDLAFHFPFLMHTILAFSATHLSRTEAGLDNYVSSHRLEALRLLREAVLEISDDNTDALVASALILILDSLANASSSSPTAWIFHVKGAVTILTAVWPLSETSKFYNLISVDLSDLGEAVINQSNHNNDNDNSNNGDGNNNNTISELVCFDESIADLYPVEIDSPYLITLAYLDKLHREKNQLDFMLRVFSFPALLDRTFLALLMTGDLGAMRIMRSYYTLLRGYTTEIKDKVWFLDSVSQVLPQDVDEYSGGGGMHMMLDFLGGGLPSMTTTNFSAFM
Protocol: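 Universal 'all 10-mer' protein binding microarrays (Agilent AMADID 015681) probed with GST-tagged S. cerevisiae TFs (full-length or DBD) made by in vitro transcription/translation (PURExpress), about 100-200 nM. Bound TF was detected with fluorescent anti-GST. Each ungapped 8-mer (which stands for itself and its reverse complement) is scored by the PBM enrichment score (E-score), a modified Wilcoxon-Mann-Whitney statistic from -0.5 to +0.5, computed with the Universal PBM Analysis Suite. Scale: above 0.35 generally sequence-specific binding.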

First: CTGAGCAC
Second: CCCCCTGC
The “PBM E-score” value of the first is higher: -0.132 for the first, -0.162 for the second.

Going from TAAGAATA to ATGCGTCG, the “PBM E-score” value rises from 0.104 to 0.137.

First: AGAATAAA
Second: ACAGAGTG
The “PBM E-score” value of the first is higher: -0.0136 for the first, -0.0233 for the second.

First: AGGGACAT
Second: GACGGCTA
The “PBM E-score” value of the first is higher: 0.0208 for the first, -0.0544 for the second.

First: GTGCCTAA
Second: AATGATAT
The “PBM E-score” value of the first is lower: -0.253 for the first, 0.097 for the second.

Going from GCAATAGC to CTTCTTCA, the “PBM E-score” value falls from -0.107 to -0.341.

Going from GGTCGACC to ATCAGTAA, the “PBM E-score” value rises from 0.0863 to 0.135.

Going from CGCAATGA to CATGCCCG, the “PBM E-score” value falls from 0.0533 to 0.0521.

First: GCAAAATA
Second: AACGGCCC
The “PBM E-score” value of the first is lower: 0.096 for the first, 0.198 for the second.

First: CCGTGGTA
Second: CCAGAAAA
The “PBM E-score” value of the first is higher: -0.0622 for the first, -0.131 for the second.

Compared with CTAATGAC, CATCATAA is higher in “PBM E-score” value: -0.167 for the first, -0.0898 for the second.

First: CCGATAGA
Second: CCTTTAGA
The “PBM E-score” value of the first is higher: -0.134 for the first, -0.149 for the second.

Going from CAACAACG to CAGTAAAA, the “PBM E-score” value falls from 0.209 to 0.163.

First: ATCGTGAA
Second: ACGGTATC
The “PBM E-score” value of the first is lower: 0.0307 for the first, 0.159 for the second.

First: GAATTAGC
Second: AACACACA
The “PBM E-score” value of the first is lower: -0.121 for the first, -0.0144 for the second.

Going from TGCGCAAA to AAAGTAAT, the “PBM E-score” value rises from -0.077 to 0.0494.

Going from AGAAGTAC to GAGATCAC, the “PBM E-score” value rises from -0.0898 to -0.024.

Going from TCACAGCA to GTCGTGAA, the “PBM E-score” value rises from -0.00995 to 0.0408.

Going from TGCCAGCA to GCGGTACC, the “PBM E-score” value rises from -0.279 to 0.00785.

First: CTTGTTCA
Second: ATAACGAA
The “PBM E-score” value of the first is lower: -0.0939 for the first, 0.185 for the second.

Going from ACAGTGGG to AAAGTATA, the “PBM E-score” value rises from -0.138 to -0.0184.

Compared with CCGTACGG, CAGACCAA is lower in “PBM E-score” value: 0.378 for the first, -0.107 for the second.

Compared with ACCTCCGC, CAAGGTTA is higher in “PBM E-score” value: -0.231 for the first, -0.0596 for the second.

Going from AATAATTG to CAAGCACA, the “PBM E-score” value falls from -0.0327 to -0.256.

First: AGCGACCG
Second: AACGGCGG
The “PBM E-score” value of the first is higher: 0.277 for the first, 0.224 for the second.

Going from CAACAGGG to AGGCAGCG, the “PBM E-score” value falls from -0.207 to -0.244.

Going from ATCAGAAG to CACCTCAC, the “PBM E-score” value falls from -0.0721 to -0.212.

Going from CTTGTATC to GCCGGACC, the “PBM E-score” value rises from -0.0435 to 0.0998.

Going from GATGTCCA to TGAGTGAA, the “PBM E-score” value falls from -0.136 to -0.286.

Compared with ATCCCTTG, GTAGGGCA is lower in “PBM E-score” value: -0.0101 for the first, -0.0115 for the second.

Compared with GAGATACC, CAAGGAAG is lower in “PBM E-score” value: 0.0436 for the first, -0.269 for the second.

Compared with AAATCGTG, GTGAAAGA is higher in “PBM E-score” value: 0.0433 for the first, 0.0681 for the second.

First: TACCGCGA
Second: CTGACCTC
The “PBM E-score” value of the first is higher: 0.144 for the first, -0.0554 for the second.

Going from AGTAGTTG to GGAATTTA, the “PBM E-score” value rises from -0.162 to 0.109.

Compared with CGGTGATA, AACCTCCC is lower in “PBM E-score” value: -0.0352 for the first, -0.0604 for the second.

Going from CTATCGCC to AAGCAACT, the “PBM E-score” value rises from -0.0638 to -0.0406.

Compared with CGCTAATC, CCGTTAGC is lower in “PBM E-score” value: 0.172 for the first, -0.0893 for the second.

First: CAGATTCC
Second: AAAAAACG
The “PBM E-score” value of the first is lower: -0.263 for the first, 0.186 for the second.

First: ATACAATA
Second: CATGAGAG
The “PBM E-score” value of the first is higher: 0.151 for the first, -0.123 for the second.

Going from ACCCTCGC to ACACCTCC, the “PBM E-score” value falls from 0.194 to -0.189.

Going from AGGCGTTG to GTGGATCA, the “PBM E-score” value falls from -0.0496 to -0.187.

Going from ACCAATCT to CTGATGAC, the “PBM E-score” value rises from -0.132 to -0.0143.

Compared with GCGGATGA, ACAACCCA is higher in “PBM E-score” value: -0.00903 for the first, 0.0104 for the second.

Going from AGTGCATC to AAGGGAGG, the “PBM E-score” value rises from -0.102 to -0.0153.

Going from GTAGTTGA to CGTCGACG, the “PBM E-score” value falls from 0.0597 to -0.156.

Compared with AAGGCGGA, AGTGCACC is higher in “PBM E-score” value: -0.228 for the first, -0.128 for the second.

First: ACACACAG
Second: CATGCGGA
The “PBM E-score” value of the first is lower: -0.0269 for the first, 0.0553 for the second.

Going from CCAGGATA to ACGTTATA, the “PBM E-score” value rises from 0.0487 to 0.117.

Going from CGCACCCA to CAGCACGC, the “PBM E-score” value falls from 0.0848 to -0.0215.

Going from ATGATGAG to ACAACGGC, the “PBM E-score” value rises from -0.124 to 0.0125.

Compared with GTCTACTA, CGCTTCAG is lower in “PBM E-score” value: 0.0292 for the first, -0.0166 for the second.

Compared with CATCTTAA, GCACCTCA is lower in “PBM E-score” value: 0.0063 for the first, -0.244 for the second.

First: CTCAACGC
Second: AACCTGAG
The “PBM E-score” value of the first is lower: -0.215 for the first, -0.0795 for the second.

First: CGAGGTAG
Second: AAATGACG
The “PBM E-score” value of the first is higher: 0.0783 for the first, -0.0464 for the second.

Going from GCAGGCCA to GAATATGA, the “PBM E-score” value falls from -0.00078 to -0.116.

Compared with AGGGTCTA, GAAAGAGC is higher in “PBM E-score” value: -0.186 for the first, 0.0482 for the second.

First: CCCAAACG
Second: ATGCACGG
The “PBM E-score” value of the first is higher: 0.323 for the first, -0.148 for the second.

First: CCCACGGC
Second: ATTCAGCC
The “PBM E-score” value of the first is higher: -0.19 for the first, -0.251 for the second.

First: ACGGGGTC
Second: ATCCCACA
The “PBM E-score” value of the first is higher: 0.145 for the first, -0.176 for the second.

First: GGTGTAAC
Second: CGAAAGAC
The “PBM E-score” value of the first is higher: 0.132 for the first, 0.0459 for the second.

Compared with ACGGCGCA, ACCGTTGG is lower in “PBM E-score” value: 0.0596 for the first, -0.266 for the second.

Compared with CATTAGTC, ACATGAGG is lower in “PBM E-score” value: -0.164 for the first, -0.236 for the second.

First: CTTTTACA
Second: AGCTCCTG
The “PBM E-score” value of the first is higher: -0.0936 for the first, -0.168 for the second.

First: TGAGTTAA
Second: AATAAAGG
The “PBM E-score” value of the first is lower: -0.185 for the first, -0.169 for the second.

First: AGGGCACC
Second: CCCAAGAG
The “PBM E-score” value of the first is lower: -0.209 for the first, -0.153 for the second.

Going from AGAAGCCG to GCTAGTCA, the “PBM E-score” value falls from -0.0447 to -0.205.

Going from AGCGACTC to GTGGTGTA, the “PBM E-score” value falls from 0.135 to 0.0807.

Compared with AATAAATA, GGTGAAAA is lower in “PBM E-score” value: 0.281 for the first, -0.0425 for the second.

First: CGCAGAGA
Second: CACCCGAG
The “PBM E-score” value of the first is lower: -0.0886 for the first, 0.197 for the second.

Compared with AGCTATTC, ACTTGGCT is lower in “PBM E-score” value: -0.0449 for the first, -0.179 for the second.

First: CTAACAGA
Second: GGCGCTCA
The “PBM E-score” value of the first is lower: -0.173 for the first, -0.107 for the second.

Compared with GATCTCCC, ACAACAAT is lower in “PBM E-score” value: -0.0973 for the first, -0.109 for the second.

First: ATGCAGTC
Second: ATATATCG
The “PBM E-score” value of the first is lower: 0.0133 for the first, 0.189 for the second.

Compared with AAGTCGTA, CAGACCTC is lower in “PBM E-score” value: 0.433 for the first, -0.0126 for the second.

Compared with ACTCCCTG, GGGGGCAA is higher in “PBM E-score” value: -0.321 for the first, -0.228 for the second.

Going from AGTCAACA to CAGGGCAA, the “PBM E-score” value falls from -0.0527 to -0.227.

Going from AGAGCATC to GGCGGCGA, the “PBM E-score” value falls from -0.128 to -0.157.

First: GTACAATA
Second: TACGGCGA
The “PBM E-score” value of the first is lower: 0.0911 for the first, 0.357 for the second.

Going from CCGAGTAC to CCTATAAC, the “PBM E-score” value falls from 0.24 to -0.115.

Going from CAAAATAG to AGCGACAG, the “PBM E-score” value rises from -0.111 to 0.305.

First: AGCATGGA
Second: AACGTAAC
The “PBM E-score” value of the first is lower: -0.283 for the first, 0.21 for the second.

Going from CATCAAGA to AAAAGTCT, the “PBM E-score” value falls from 0.0177 to -0.149.

Going from TGAATACA to AGAACCGC, the “PBM E-score” value rises from -0.0376 to 0.14.

First: AGACACTC
Second: CGTGTGGA
The “PBM E-score” value of the first is lower: -0.217 for the first, -0.0117 for the second.

Compared with TACCGCTA, TAGCCGAA is higher in “PBM E-score” value: 0.0699 for the first, 0.0771 for the second.

First: CTTAGTCC
Second: TCACTAGA
The “PBM E-score” value of the first is lower: -0.104 for the first, -0.0764 for the second.
